Test results: PMC7160206
These are yes or no findings as the source states them, for the method shown. In cells and extracts the contact can be indirect. Some entries that bind do so weakly or less than the wild type. For some assays here: Tags and fused reporters may be left off the sequences shown.

Protein sequences, listed by entry. Tags and fused reporters are not part of them.
UniProt Q9FIJ0: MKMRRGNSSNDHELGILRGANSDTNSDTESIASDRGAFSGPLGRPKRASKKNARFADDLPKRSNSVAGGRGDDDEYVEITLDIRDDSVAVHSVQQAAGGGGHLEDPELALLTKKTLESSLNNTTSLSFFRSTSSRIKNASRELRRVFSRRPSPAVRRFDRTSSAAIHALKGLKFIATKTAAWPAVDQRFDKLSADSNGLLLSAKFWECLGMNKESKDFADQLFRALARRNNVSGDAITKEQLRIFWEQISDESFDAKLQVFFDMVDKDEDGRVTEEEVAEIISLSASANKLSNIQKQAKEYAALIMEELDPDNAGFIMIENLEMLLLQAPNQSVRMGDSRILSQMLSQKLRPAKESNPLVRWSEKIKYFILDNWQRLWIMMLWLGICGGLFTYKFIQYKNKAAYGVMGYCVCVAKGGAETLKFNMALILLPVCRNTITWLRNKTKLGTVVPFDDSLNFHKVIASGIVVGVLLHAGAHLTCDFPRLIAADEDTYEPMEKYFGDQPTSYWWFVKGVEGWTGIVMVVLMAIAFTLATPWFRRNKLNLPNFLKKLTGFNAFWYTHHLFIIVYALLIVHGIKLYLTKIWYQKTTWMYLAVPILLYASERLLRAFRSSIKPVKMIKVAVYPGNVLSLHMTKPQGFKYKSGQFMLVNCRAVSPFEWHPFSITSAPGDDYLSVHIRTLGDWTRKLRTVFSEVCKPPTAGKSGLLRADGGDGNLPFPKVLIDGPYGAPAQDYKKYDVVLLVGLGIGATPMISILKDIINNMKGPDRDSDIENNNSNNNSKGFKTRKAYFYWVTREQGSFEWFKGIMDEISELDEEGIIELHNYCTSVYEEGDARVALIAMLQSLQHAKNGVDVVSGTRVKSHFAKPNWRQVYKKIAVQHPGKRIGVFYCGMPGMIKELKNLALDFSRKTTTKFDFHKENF

T1: LTI6b-GFP (UniProt Q9ZNS6)
T1 sequence: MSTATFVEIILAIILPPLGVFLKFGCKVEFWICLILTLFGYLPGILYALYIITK

T2: YFP-LTI6b-3xFLAG (UniProt Q9ZNS6)
T2 sequence: T1 sequence

B1: PBL13-3xFLAG (protein, UniProt F4JZW1 1-494)
chain: MVLCFQDPDNIYSPKKTKKDDGERVITKQKSFLGLSILDISNPSSTTLSEDLSISLAGSDLHVFTQAELRVITQSFSSSNFLGEGGFGPVHKGFIDDKLRPGLKAQPVAVKLLDLDGLQGHREFMTEVMCLGKLKHPNLVKLIGYCCEEAHRLLVYEFMPRGSLESQLFRRCSLPLPWTTRLNIAYEAAKGLQFLHEAEKPIIYRDFKASNILLDSDYTAKLSDFGLAKDGPQGDDTHVSTRVMGTQGYAAPEYIMTGHLTAKSDVYSFGVVLLELLTGRKSVDIARSSRKETLVEWARPMLNDARKLGRIMDPRLEDQYSETGARKAATLAYQCLRYRPKTRPDISTVVSVLQDIKDYKDDIPIGIFTYTVPTKPRREVKETSLQNFDKPRRETKVTSLQNFDKTRREVKDTSLQNFDKTRREVKETSLQNFDKTRREVKETSLQNFDKPRNVSTTDNHQKFRSPAHTARNHRITLRNGYNSPMRNEAGGERY
B2: PBL13-3xHA (protein, UniProt F4JZW1 1-494)
chain: B1 chain

What was measured:
[1] = molecular target: T1, LTI6b-GFP; assay: co-IP; Arabidopsis mesophyll protoplasts of the line 35S::PBL13-3xFLAG/pbl13-2 #8-3 transfected with GFP fusions; anti-GFP (GFP-Trap) immunoprecipitation; IP buffer 50 mM Tris-HCl pH 7.5, 150 mM NaCl, 10% glycerol, 2% IGEPAL; 4 °C
[2] = molecular target: GFP-RBOHD (Arabidopsis thaliana) (UniProt Q9FIJ0); assay: as above
[3] = molecular target: native RBOHD (Arabidopsis thaliana (endogenous in Arabidopsis seedlings)) (UniProt Q9FIJ0); assay: co-IP; solubilised (2% IGEPAL) microsomal fractions of 10-day-old Arabidopsis transgenic seedlings; native RBOHD detected with anti-RBOHD; for YFP-PIRE anti-GFP beads, without and with flg22 treatment
[4] = molecular target: T2, YFP-LTI6b-3xFLAG; assay: co-IP; transient co-expression in N. benthamiana leaves; GFP-Trap immunoprecipitation of YFP fusions, 4 °C, 2 h; IP buffer 150 mM Tris-HCl pH 7.5, 150 mM NaCl, 10% glycerol, 2% IGEPAL
[5] = molecular target: YFP-RBOHD (Arabidopsis thaliana) (UniProt Q9FIJ0); assay: as above

| Binder | binding [1] | binding [2] | binding [3] | binding [4] | binding [5] |
| --- | --- | --- | --- | --- | --- |
| B1 | no binding | binds | binds | – | – |
| B2 | – | – | – | no binding | binds |
